Measured values reported in patent US12371752B2 (priority 2019, dated 2025).

Target: influenza virus-derived neuraminidase (Influenza A virus, UniProt P03468)
Sequence of UniProt P03468 (P03468 whole entry, looked up): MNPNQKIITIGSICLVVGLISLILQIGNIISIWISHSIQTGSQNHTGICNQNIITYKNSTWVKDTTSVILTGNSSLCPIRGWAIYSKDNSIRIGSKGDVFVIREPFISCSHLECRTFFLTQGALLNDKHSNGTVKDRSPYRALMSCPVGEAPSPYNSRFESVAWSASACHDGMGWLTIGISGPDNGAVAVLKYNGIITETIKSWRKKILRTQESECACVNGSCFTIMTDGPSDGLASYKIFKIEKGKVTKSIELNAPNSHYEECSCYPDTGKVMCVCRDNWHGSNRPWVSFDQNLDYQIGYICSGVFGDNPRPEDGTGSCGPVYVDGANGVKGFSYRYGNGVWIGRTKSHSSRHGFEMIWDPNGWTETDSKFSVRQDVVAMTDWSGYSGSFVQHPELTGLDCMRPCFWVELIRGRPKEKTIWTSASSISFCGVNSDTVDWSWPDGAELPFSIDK

SMILES | change in fluorescence intensity with elapsed time
CC(=O)N[C@H]1[C@H]([C@H](O)[C@H](O)CO)O[C@@](Oc2ccc(COc3ccc4c(c3)Oc3cc(NCC(F)(F)F)ccc3C43OCc4ccccc43)cc2)(C(=O)O)C[C@@H]1O (some centres unmarked) [HMRef-S-Neu5Ac] | no change
CC(=O)N[C@@H]1[C@@H](O)C[C@](Oc2ccc3c(C)cc(=O)oc3c2)(C(=O)O)O[C@H]1C(O)[C@H](O)CO (stereo partly drawn) [4MU-NANA, 2′-(4-methylumbelliferyl)-α-D-N-acetylneuraminic acid, reference compound] | increased over time
